From publication PMC6130078
These are yes or no findings as the source states them, for the method shown. Binding seen in cells or lysates may run through a third protein. Some entries that bind do so weakly or less than the wild type. For some assays here: Sequences can lack the tags named with a protein.

Protein sequences, listed by entry. Tags and fused reporters are not part of them. Residues count along the entry.
UniProt O60260: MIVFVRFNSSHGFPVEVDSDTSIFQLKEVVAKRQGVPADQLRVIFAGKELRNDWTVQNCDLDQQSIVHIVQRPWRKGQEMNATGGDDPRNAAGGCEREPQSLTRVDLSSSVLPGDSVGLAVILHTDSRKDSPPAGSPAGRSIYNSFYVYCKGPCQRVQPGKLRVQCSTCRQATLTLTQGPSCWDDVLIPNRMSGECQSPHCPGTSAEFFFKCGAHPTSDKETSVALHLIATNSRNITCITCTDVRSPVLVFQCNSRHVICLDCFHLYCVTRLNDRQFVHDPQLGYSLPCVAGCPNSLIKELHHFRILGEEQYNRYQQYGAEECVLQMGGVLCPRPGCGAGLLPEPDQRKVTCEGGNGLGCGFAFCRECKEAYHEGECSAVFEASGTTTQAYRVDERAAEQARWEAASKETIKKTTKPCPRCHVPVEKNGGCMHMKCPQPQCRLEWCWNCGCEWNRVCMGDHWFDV
UniProt P19490, residues 19-907: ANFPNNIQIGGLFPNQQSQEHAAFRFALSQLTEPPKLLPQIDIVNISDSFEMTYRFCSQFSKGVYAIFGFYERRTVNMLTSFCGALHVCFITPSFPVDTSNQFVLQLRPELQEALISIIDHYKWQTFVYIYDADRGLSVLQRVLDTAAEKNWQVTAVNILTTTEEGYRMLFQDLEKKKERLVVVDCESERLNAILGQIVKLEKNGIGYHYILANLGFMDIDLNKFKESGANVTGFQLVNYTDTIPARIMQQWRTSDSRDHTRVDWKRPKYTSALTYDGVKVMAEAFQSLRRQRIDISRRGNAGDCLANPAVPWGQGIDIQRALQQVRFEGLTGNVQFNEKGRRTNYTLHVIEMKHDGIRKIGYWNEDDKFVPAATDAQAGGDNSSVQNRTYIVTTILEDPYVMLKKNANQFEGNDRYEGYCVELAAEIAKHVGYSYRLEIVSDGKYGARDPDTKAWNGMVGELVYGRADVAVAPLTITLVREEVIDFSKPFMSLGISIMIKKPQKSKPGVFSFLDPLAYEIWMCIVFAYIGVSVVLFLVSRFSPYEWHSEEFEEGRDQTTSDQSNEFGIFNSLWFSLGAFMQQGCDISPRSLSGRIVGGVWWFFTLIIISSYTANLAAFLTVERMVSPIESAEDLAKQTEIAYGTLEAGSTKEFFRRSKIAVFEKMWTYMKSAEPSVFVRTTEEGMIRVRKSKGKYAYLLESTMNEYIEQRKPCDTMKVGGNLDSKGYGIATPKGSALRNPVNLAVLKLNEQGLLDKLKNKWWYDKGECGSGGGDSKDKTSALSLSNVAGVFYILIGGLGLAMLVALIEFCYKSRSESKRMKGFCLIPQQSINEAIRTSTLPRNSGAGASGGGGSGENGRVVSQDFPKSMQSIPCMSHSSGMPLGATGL
UniProt P19491, residues 22-883: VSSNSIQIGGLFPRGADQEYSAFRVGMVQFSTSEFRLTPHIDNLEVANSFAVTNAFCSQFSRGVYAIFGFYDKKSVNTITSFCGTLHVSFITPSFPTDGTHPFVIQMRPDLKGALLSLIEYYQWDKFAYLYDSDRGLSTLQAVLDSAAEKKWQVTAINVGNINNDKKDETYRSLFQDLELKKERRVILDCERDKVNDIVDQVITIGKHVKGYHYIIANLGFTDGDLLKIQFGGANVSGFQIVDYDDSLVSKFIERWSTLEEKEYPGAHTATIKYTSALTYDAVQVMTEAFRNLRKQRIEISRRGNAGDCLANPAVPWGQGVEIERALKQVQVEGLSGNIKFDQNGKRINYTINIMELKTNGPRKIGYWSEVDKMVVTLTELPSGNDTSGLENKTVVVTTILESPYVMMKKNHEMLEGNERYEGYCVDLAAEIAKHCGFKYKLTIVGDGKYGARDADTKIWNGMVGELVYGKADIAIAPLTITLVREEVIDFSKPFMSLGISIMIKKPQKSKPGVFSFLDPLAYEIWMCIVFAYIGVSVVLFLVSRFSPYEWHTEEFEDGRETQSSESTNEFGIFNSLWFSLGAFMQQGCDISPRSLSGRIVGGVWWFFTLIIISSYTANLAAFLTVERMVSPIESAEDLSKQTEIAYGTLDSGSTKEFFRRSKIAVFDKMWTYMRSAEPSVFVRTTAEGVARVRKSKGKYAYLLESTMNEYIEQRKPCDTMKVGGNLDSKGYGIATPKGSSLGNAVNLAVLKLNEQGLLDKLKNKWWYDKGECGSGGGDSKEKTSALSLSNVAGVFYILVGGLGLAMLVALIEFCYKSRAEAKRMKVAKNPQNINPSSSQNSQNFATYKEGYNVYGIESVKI
UniProt Q00960, residues 27-1482: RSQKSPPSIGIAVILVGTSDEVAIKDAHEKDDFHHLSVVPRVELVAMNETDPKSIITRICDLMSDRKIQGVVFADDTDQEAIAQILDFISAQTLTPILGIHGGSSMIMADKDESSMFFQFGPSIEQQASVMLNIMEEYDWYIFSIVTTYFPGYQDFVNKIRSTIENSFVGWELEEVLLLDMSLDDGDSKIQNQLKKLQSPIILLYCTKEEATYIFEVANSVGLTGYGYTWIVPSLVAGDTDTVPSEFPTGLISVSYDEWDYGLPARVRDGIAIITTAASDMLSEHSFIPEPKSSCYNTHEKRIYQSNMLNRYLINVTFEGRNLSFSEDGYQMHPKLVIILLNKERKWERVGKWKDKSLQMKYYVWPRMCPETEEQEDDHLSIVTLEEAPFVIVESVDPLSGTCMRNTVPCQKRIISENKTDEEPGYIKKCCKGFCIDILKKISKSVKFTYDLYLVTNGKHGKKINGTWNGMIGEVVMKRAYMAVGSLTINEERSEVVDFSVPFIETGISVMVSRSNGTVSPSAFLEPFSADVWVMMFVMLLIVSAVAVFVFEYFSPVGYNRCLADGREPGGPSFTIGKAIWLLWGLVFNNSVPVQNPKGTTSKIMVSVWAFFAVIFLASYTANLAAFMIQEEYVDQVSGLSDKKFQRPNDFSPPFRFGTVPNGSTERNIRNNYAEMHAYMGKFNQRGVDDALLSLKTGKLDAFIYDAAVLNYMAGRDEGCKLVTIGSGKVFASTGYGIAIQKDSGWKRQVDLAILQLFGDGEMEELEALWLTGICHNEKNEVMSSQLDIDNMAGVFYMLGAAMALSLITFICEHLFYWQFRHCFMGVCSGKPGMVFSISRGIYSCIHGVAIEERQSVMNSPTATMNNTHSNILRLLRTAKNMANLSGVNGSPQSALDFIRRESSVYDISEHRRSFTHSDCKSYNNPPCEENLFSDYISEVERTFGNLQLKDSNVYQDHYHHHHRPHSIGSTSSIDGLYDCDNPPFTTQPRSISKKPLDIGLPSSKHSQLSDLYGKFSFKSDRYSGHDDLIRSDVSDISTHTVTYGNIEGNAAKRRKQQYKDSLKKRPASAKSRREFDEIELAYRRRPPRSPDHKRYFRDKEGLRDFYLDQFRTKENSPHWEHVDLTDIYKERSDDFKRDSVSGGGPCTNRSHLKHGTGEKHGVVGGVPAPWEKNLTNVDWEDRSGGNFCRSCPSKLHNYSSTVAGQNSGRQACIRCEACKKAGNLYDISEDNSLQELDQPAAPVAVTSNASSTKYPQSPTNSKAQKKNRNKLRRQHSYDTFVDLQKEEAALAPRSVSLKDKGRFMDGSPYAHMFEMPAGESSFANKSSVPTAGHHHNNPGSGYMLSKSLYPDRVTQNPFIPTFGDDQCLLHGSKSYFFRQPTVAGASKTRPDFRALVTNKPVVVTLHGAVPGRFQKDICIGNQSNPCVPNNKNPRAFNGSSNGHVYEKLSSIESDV

Tests used:
Myc-Parkin = Myc-Parkin (UniProt O60260); assay: co-IP; Myc IP (Dynabeads with anti-Myc) from lysates of HEK293T cells co-transfected with Myc-Parkin and pCI-SEP-GluA1/-GluA2/-GluN1/-GluN2B; lysis buffer 50 mM Tris-base, 150 mM NaCl, 1% Triton X-100, 0.5% deoxycholic acid; 4 °C, 2-4 h; blots for Myc and GFP
GFP-Homer1 = molecular target: T1, GFP-Homer1 (UniProt Q9Z214); assay: co-IP; Homer1 IP (Dynabeads with anti-Homer1) from lysates of HEK293T cells co-transfected with GFP-Homer1 and GFP-Parkin WT or mutants; lysis buffer 50 mM Tris-base, 150 mM NaCl, 1% Triton X-100, 0.5% deoxycholic acid; 4 °C, 2-4 h; blots for Parkin and Homer1
T1 sequence: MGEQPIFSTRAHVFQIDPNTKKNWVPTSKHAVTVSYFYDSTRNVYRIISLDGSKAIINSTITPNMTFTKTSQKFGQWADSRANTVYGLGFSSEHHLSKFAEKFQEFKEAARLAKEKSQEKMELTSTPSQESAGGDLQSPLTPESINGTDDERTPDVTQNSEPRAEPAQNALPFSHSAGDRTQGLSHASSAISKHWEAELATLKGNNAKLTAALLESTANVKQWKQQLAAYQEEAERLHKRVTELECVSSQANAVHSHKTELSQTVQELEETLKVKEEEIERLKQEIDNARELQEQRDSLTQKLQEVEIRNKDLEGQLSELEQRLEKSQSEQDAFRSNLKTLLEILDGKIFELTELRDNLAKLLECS

Substance	binding (Myc-Parkin)	binding (GFP-Homer1)
GFP-GluA1 (pCI-SEP-GluA1) (from UniProt P19490 19-907) (receptor)	no binding	–
GFP-GluA2 (pCI-SEP-GluA2) (from UniProt P19491 22-883) (receptor)	no binding	–
GFP-GluN1 (pCI-SEP-GluN1) (from UniProt P35439 19-938) (receptor)	binds	–
GFP-GluN2B (pCI-SEP-GluN2B) (from UniProt Q00960 27-1482) (receptor)	no binding	–
GFP-Parkin WT (from UniProt O60260 1-465) (enzyme)	–	binds
